Results on 31 compounds are retold here after US9890133B2 (priority 2011, dated 2018).

Converted amounts (≈) assume the structure as drawn. Like-named read-outs stand apart in the source and are kept apart here.

In one experiment the test system is Coxsackie B3. Put plainly: microbe, parasite or virus in culture. Particulars: Enterovirus B.
In another experiment the test system is Coxsackie B1. Put plainly: organism not typed. The conditions noted are these: read-out: Coxsackie B1 EC50.
Setting [1] is: B3, HeLa37, 48 h, read-out: Coxsackie B3 EC50.
[2] abbreviates: B3, read-out: Coxsackie B3 EC50.

For `CC(=O)O[C@@]12Oc3cc(C(C)C)ccc3[C@]1(OC(C)=O)C(=O)c1c(N)cccc12` [Example 47, 1-Amino-7-isopropyl-10-oxo-9b,10-dihydro-4bH-benzo[d]indeno[1,2-b]furane-4b,9b-diyl diacetate], the EC50 in the experiment with Coxsackie B3 (setting [1]), in the experiment with Coxsackie B3 (setting [2]) and in the experiment on Coxsackie B1 was under 0.01 µg/mL each time.

`CCc1ccc2c(c1)OC1(O)c3cccc(N)c3C(=O)C21O` (stereo not shown) [Example 50, 1-Amino-7-ethyl-4b,9b-dihydroxy-4b,9b-dihydro-5-oxa-indeno[2,1-a]inden-10-one]: the EC50 in the experiment with Coxsackie B3 (setting [1]), in the experiment on Coxsackie B3 (setting [2]) and in the experiment on Coxsackie B1 was under 0.01 µg/mL each time.

Regarding `COC(=O)O[C@@]12Oc3cc(C(C)C)ccc3[C@]1(OC(=O)OC)C(=O)c1c(N)cccc12` [Example 51], the EC50 in the experiment with Coxsackie B3 (setting [2]) and in the experiment with Coxsackie B1 was under 0.01 µg/mL each time.

For the compound `CC(C)c1ccc2c(c1)OC1(O)c3ccc([N+](=O)[O-])c(N)c3C(=O)C21O` (stereo not shown) [Example 60, 1-Amino-4b,9b-dihydroxy-7-isopropyl-2-nitro-4bH-indeno[1,2-b]benzofuran-10(9bH)-one], the EC50 in the experiment on Coxsackie B3 (setting [2]) and in the experiment on Coxsackie B1 was under 0.01 µg/mL each time.

`CC(C)c1ccc2c(c1)OC1(O)c3c(N)ccc(N)c3C(=O)C21O` (stereo not shown) [Example 61, 1,4-diamino-4b,9b-dihydroxy-7-isopropyl-4bH-benzo[d]indeno[1,2-b]furan-10(9bH)-one]: the EC50 in the experiment with Coxsackie B3 (setting [2]) and in the experiment with Coxsackie B1 was under 0.01 µg/mL each time.

Regarding `CC(C)c1ccc2c(c1)OC1(O)c3ccc(N)c(N)c3C(=O)C21O` (stereo not shown) [Example 62, 1,2-Diamino-4b,9b-dihydroxy-7-isopropyl-4bH-indeno[1,2-b]benzofuran-10(9bH)-one], the EC50 in the experiment on Coxsackie B3 (setting [2]) and in the experiment on Coxsackie B1 was under 0.01 µg/mL throughout.

As for `CC(C)c1cc(C(C)C)c2c(c1)C1(O)C(=O)c3ccccc3C1(O)O2` (stereo not shown) [Example 64, 4b,9b-Dihydroxy-6,8-diisopropyl-4b,9b-dihydro-5-oxa-indeno[2,1-a]inden-10-one], the EC50 in the experiment with Coxsackie B3 (setting [2]) and in the experiment with Coxsackie B1 was under 0.01 µg/mL in each case.

Consider `CC(C)c1ccc2c(c1)OC1(O)c3ccccc3C(=O)C21N` (stereo not shown) [Example 65, 9b-Amino-4b-hydroxy-7-isopropyl-4b,9b-dihydro-5-oxa-indeno[2,1-a]inden-10-one], for which the EC50 in the experiment on Coxsackie B3 (setting [2]) was 0.015 µg/mL (≈ 0.0508 µM); in the experiment with Coxsackie B1 it was under 0.01 µg/mL.

On to `CC(=O)NC12C(=O)c3ccccc3C1(O)Oc1cc(C(C)C)ccc12` (stereo not shown) [Example 66, N-(4b-Hydroxy-7-isopropyl-10-oxo-4b,10-dihydro-5-oxa-indeno[2,1-a]inden-9b-yl)-acetamide], for which the EC50 with Coxsackie B3 (setting [2]) and in the experiment on Coxsackie B1 was under 0.01 µg/mL each time.

For the compound `CC(C)c1cc(C(C)C)c2c(c1)C1(N)C(=O)c3ccccc3C1(O)O2` (stereo not shown) [Example 68, 9b-Amino-4b-hydroxy-6,8-diisopropyl-4b,9b-dihydro-5-oxa-indeno[2,1-a]inden-10-one], the EC50 with Coxsackie B3 (setting [2]) and with Coxsackie B1 was under 0.01 µg/mL throughout.

Consider `CC(=O)Nc1cccc2c1C(=O)[C@@]1(NC(C)=O)c3ccc(C(C)C)cc3O[C@@]21O` [Example 87, N,N′-((4bS,9bS)-4b-Hydroxy-7-isopropyl-10-oxo-9b,10-dihydro-4bH-benzo[d]indeno[1,2-b]furane-1,9b-diyl)diacetamide], for which the EC50 in the experiment with Coxsackie B3 (setting [2]) and with Coxsackie B1 was under 0.01 µg/mL each time.

Turning to `CCCC(=O)NC12C(=O)c3ccccc3C1(OC(=O)CCC)Oc1cc(C(C)C)ccc12` (stereo not shown) [Example 89, Butyric acid 9b-butyrylamino-7-isopropyl-10-oxo-9b,10-dihydro-5-oxa-indeno[2,1-a]inden-4b-yl ester], the EC50 in the experiment with Coxsackie B3 (setting [2]) and in the experiment on Coxsackie B1 was under 0.01 µg/mL each time.

Consider `CCCCCCCC(=O)NC12C(=O)c3ccccc3C1(O)Oc1cc(C(C)C)ccc12` (stereo not shown) [Example 90], for which the EC50 with Coxsackie B3 (setting [2]) and with Coxsackie B1 was under 0.01 µg/mL throughout.

Turning to `CO[C@@]12C(=O)c3ccccc3[C@]1(O)Oc1cc(C(C)C)ccc12` [Example 98, (4bS,9bS)-4b-Hydroxy-7-isopropyl-9b-methoxy-4bH-indeno[1,2-b]benzofuran-10(9bH)-one], the EC50 with Coxsackie B3 (setting [2]) is 0.022 µg/mL (≈ 0.0709 µM); in the experiment with Coxsackie B1 it was under 0.01 µg/mL.

Take `CCC(=O)N1c2cc(C)c(C)cc2C2(O)C(=O)c3ccccc3C12O` (stereo not shown) [Example 105, 4b,9b-Dihydroxy-7,8-dimethyl-5-propionyl-4b,5-dihydroindeno[1,2-b]indol-10(9bH)-one]: the EC50 in the experiment with Coxsackie B3 (setting [2]) was found to be 0.016 µg/mL (≈ 0.0474 µM); in the experiment on Coxsackie B1, 0.018 µg/mL (≈ 0.0534 µM).

As to `COC(=O)OC12Oc3cc(C(C)C)ccc3C1(NC(C)=O)C(=O)c1ccccc12` (stereo not shown) [Example 111, 9b-Acetamido-7-isopropyl-10-oxo-9b,10-dihydro-4bH-indeno[1,2-b]benzofuran-4b-yl methyl carbonate], the EC50 in the experiment on Coxsackie B3 (setting [2]) and in the experiment on Coxsackie B1 was under 0.01 µg/mL each time.

Consider `CCCCC(=O)OC12Oc3cc(C(C)C)ccc3C1(NC(C)=O)C(=O)c1ccccc12` (stereo not shown) [Example 112, 9b-Acetamido-7-isopropyl-10-oxo-9b,10-dihydro-4bH-indeno[1,2-b]benzofuran-4b-yl pentanoate], for which the EC50 in the experiment on Coxsackie B3 (setting [2]) and in the experiment with Coxsackie B1 was under 0.01 µg/mL throughout.

On to `CCOC(=O)OC12Oc3cc(C(C)C)ccc3C1(NC(C)=O)C(=O)c1ccccc12` (stereo not shown) [Example 116, 9b-Acetamido-7-isopropyl-10-oxo-9b,10-dihydro-4bH-benzo[d]indeno[1,2-b]furan-4b-yl ethyl carbonate], for which the EC50 with Coxsackie B3 (setting [2]) and with Coxsackie B1 was under 0.01 µg/mL in each case.

Regarding `CNC(=O)OC12Oc3cc(C(C)C)ccc3C1(NC(C)=O)C(=O)c1ccccc12` (stereo not shown) [Example 118, 9b-Acetamido-7-isopropyl-10-oxo-9b,10-dihydro-4bH-benzo[d]indeno[1,2-b]furan-4b-yl methylcarbamate], the EC50 in the experiment with Coxsackie B3 (setting [2]) and in the experiment on Coxsackie B1 was under 0.01 µg/mL throughout.

Take `CC(=O)NC12C(=O)c3c(Br)cccc3C1(O)Oc1cc(C(C)C)ccc12` (stereo not shown) [Example 137, N-(1-Bromo-4b-hydroxy-7-isopropyl-10-oxo-9b,10-dihydro-4bH-indeno[1,2-b]benzofuran-9b-yl)acetamide]: the 50% effective concentration (EC50) with Coxsackie B3 (setting [2]) and in the experiment on Coxsackie B1 was under 0.01 µg/mL each time.

As for `CC(C)c1cc(C(C)C)c2c(c1)C1(O)C(=O)c3c(N)cccc3C1(O)O2` (stereo not shown) [Example 157, 1-Amino-4b,9b-dihydroxy-6,8-diisopropyl-4bH-benzo[d]indeno[1,2-b]furan-10(9bH)-one], the EC50 with Coxsackie B3 (setting [2]) and in the experiment with Coxsackie B1 was under 0.01 µg/mL throughout.

`CC(C)c1ccc2c(c1)OC1(O)c3cccc(N)c3C(=O)C21NC(=O)Nc1ccc(F)cc1` (stereo not shown) [Example 164, 1-(1-Amino-4b-hydroxy-7-isopropyl-10-oxo-9b,10-dihydro-4bH-indeno[1,2-b]benzofuran-9b-yl)-3-(4-fluorophenyl)urea]: the EC50 in the experiment on Coxsackie B3 (setting [2]) and in the experiment with Coxsackie B1 was 0.04 µg/mL (≈ 0.0894 µM) in each case.

Take `CC(C)c1ccc2c(c1)OC1(O)c3cccc(N)c3C(=O)C21NS(=O)(=O)C(F)(F)F` (stereo not shown) [Example 176, N-(1-Amino-4b-hydroxy-7-isopropyl-10-oxo-9b,10-dihydro-4bH-benzo[d]indeno[1,2-b]furan-9b-yl)-1,1,1-trifluoromethanesulfonamide]: the EC50 with Coxsackie B3 (setting [2]) and in the experiment with Coxsackie B1 was 0.037 µg/mL (≈ 0.0836 µM) throughout.

Consider `O=C1c2ccccc2C2(O)Oc3ccccc3C12NS(=O)(=O)C(F)(F)F` (stereo not shown) [Example 178, 1,1,1-Trifluoro-N-(4b-hydroxy-10-oxo-9b,10-dihydro-4bH-benzo[d]indeno[1,2-b]furan-9b-yl)methanesulfonamide], for which the EC50 with Coxsackie B3 (setting [2]) was 0.035 µg/mL (≈ 0.0908 µM); in the experiment with Coxsackie B1, under 0.01 µg/mL.

In the case of `CC(C)c1ccc2c(c1)OC1(O)c3ccccc3C(=O)C21NC(=O)[C@@H](C)NC(=O)OC(C)(C)C` (stereo partly drawn) [Example 184, tert-Butyl(2R)-1-(4b-hydroxy-7-isopropyl-10-oxo-9b,10-dihydro-4bH-benzo[d]indeno[1,2-b]furan-9b-ylamino)-1-oxopropan-2-ylcarbamate], the EC50 in the experiment on Coxsackie B3 (setting [2]) was 0.025 µg/mL (≈ 0.0536 µM); with Coxsackie B1 it was under 0.01 µg/mL.

In the case of `CC(C)c1ccc2c(c1)OC1(O)c3cccc(N)c3C(=O)C21NC(=O)c1c(Cl)cc(Cl)cc1Cl` (stereo not shown) [Example 192, N-(1-Amino-4b-hydroxy-7-isopropyl-10-oxo-9b,10-dihydro-4bH-indeno[1,2-b]benzofuran-9b-yl)-2,4,6-trichlorobenzamide], the EC50 in the experiment with Coxsackie B3 (setting [2]) and in the experiment on Coxsackie B1 was under 0.01 µg/mL in each case.

`CCCCc1cn(C23C(=O)c4c(N)cccc4C2(O)Oc2cc(C(C)C)ccc23)nn1` (stereo not shown) [Example 196, 1-amino-9b-(4-butyl-1H-1,2,3-triazol-1-yl)-4b-hydroxy-7-isopropyl-4bH-indeno[1,2-b]benzofuran-10(9bH)-one]: the EC50 in the experiment with Coxsackie B3 (setting [2]) and with Coxsackie B1 was under 0.01 µg/mL each time.

As to `Cc1ccc(C(=O)NC23C(=O)c4c(N)cccc4C2(O)Oc2cc(C(C)C)ccc23)s1` (stereo not shown) [Example 216, N-(1-Amino-4b-hydroxy-7-isopropyl-10-oxo-9b,10-dihydro-4bH-indeno[1,2-b]benzofuran-9b-yl)-5-methylthiophene-2-carboxamide], the EC50 with Coxsackie B3 (setting [2]) came out at 0.037 µg/mL (≈ 0.0852 µM); in the experiment with Coxsackie B1, 0.036 µg/mL (≈ 0.0829 µM).

Turning to `CC(C)c1ccc2c(c1)OC1(O)c3ccccc3C(=O)C21NC(=O)c1ccc([N+](=O)[O-])s1` (stereo not shown) [Example 223, N-(4b-hydroxy-7-isopropyl-10-oxo-9b,10-dihydro-4bH-benzo[d]indeno[1,2-b]furan-9b-yl)-5-nitrothiophene-2-carboxamide], the EC50 in the experiment with Coxsackie B3 (setting [2]) and in the experiment with Coxsackie B1 was under 0.01 µg/mL in each case.

In the case of `CC(C)c1ccc2c(c1)OC1(O)c3ccccc3C(=O)C21NC(=O)c1cc(=O)[nH]c(=O)[nH]1` (stereo not shown) [Example 224, N-(4b-Hydroxy-7-isopropyl-10-oxo-9b,10-dihydro-4bH-benzo[d]indeno[1,2-b]furan-9b-yl)-2,6-dioxo-1,2,3,6-tetrahydropyrimidine-4-carboxamide], the EC50 in the experiment on Coxsackie B3 (setting [2]) was 0.013 µg/mL (≈ 0.03 µM); in the experiment with Coxsackie B1, under 0.01 µg/mL.

Turning to `CC(C)c1ccc2c(c1)OC1(O)c3ccccc3C(=O)C21NC(=O)c1cc2ccccc2oc1=O` (stereo not shown) [Example 225, N-(4b-hydroxy-7-isopropyl-10-oxo-9b,10-dihydro-4bH-benzo[d]indeno[1,2-b]furan-9b-yl)-2-oxo-2H-chromene-3-carboxamide], the EC50 in the experiment on Coxsackie B3 (setting [2]) and in the experiment with Coxsackie B1 was under 0.01 µg/mL each time.
